Measured values: PubChem BioAssay AID2675 (National Center for Advancing Translational Sciences (NCATS), 2010)
Hit rate of the full screen: of about 280,000 compounds, about 100 (0.036%) were called active. The inconclusive results got no clear call from the source; some entries with a clear call stand among them for comparison. Calls follow the shape of the dose curve; as a rule, active = well fitted inhibition curve with a large enough effect in the signal ratio, with a control signal flat (not every such curve was filed as active); inconclusive = small, poorly fitted or top-dose-only effect, or effect the other way, or a change in a side signal; inactive = no such curve, though single readings can be large or run the other way; the % refers to the signal ratio. Potencies beside an inconclusive call are fits to weak or partial responses and may not hold up. “Side channel” marks fits to a control or component signal instead of the main read-out.

Target: Muscleblind-like protein 1 (Homo sapiens) (UniProt Q9NR56)
Assay: qHTS Assay for Inhibitors of MBNL1-poly(CUG) RNA binding
Conditions: TR-FRET MBNL1-His/biotin-(CUG)12 binding, 665/545 ratio; series mostly up to 57.5 µM
Method in brief: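 TR-FRET readout: Ex 340 nm, 665/545 nm emission ratio, normalized to buffer-only (basal) and MBNL1-(CUG)12 controls. Complex of MBNL1-His with Biotin-(CUG)12, compounds 92 nM–58 uM, incubated 60 min at room temperature.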
Potency is read from the fitted curve at half-maximal effect; tags tell the direction and shape of the fitted curve or compound fluorescence and quenching.

UniProt Q9NR56, sequence (Q9NR56 whole entry, looked up): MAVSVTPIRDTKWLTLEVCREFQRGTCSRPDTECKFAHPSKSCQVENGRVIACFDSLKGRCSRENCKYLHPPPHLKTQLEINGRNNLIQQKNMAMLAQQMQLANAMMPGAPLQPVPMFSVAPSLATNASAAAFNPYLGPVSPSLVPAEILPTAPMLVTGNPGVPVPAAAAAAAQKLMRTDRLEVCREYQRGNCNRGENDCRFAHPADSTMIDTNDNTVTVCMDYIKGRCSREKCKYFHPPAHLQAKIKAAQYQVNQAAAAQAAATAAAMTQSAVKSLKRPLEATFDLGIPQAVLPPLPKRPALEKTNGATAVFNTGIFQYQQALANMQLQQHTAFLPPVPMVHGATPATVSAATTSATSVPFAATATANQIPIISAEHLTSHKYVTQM

| Structure (SMILES) | Potency |
| --- | --- |
| O=C(N/N=C/c1ccco1)c1ccc(NC(=O)C2CC2)cc1 | inconclusive: 44.7 µM [quencher, side channel, partial curve] |
| CCc1nnc(NC(=O)CSc2nnc(-c3ccc(OC)cc3)n2C)s1 | inactive |
| Cc1cccc(OCc2nc3c4c(ncn3n2)-c2ccccc2CC42CCCC2)c1 | inconclusive: 0.112 µM [fluorescent, side channel, full curve] |
| COC(=O)CSc1nc(-c2cccs2)ccc1C#N | inconclusive: 25.1 µM [quencher, side channel, partial curve] |
| COc1ccc(N=CC2=C(O)c3ccccc3C2=O)cc1 | inactive |
| N#Cc1c2n(c(=S)n(-c3ccccc3[N+](=O)[O-])c1=O)CCCCC2 | inconclusive: 14.1 µM [quencher, partial curve] |
| COc1ccc(NC(=O)CCNC(=O)c2ccccc2Cl)cc1OC | inactive |
| C(=N\n1cnnc1)/c1ccc(N2CCOCC2)s1 | inconclusive: 28.2 µM [quencher, side channel, partial curve] |
| O=c1oc2ccccc2c(Nc2ccc(O)cc2)c1[N+](=O)[O-] | inconclusive: 12.6 µM [quencher, side channel, partial curve] |
| Cn1nccc1C(=O)N1CCCC(C(=O)c2cccc3ccccc23)C1 (stereo not given) | inconclusive: 39.8 µM [quencher, side channel, single point] |
| CCOC(=O)C1=C(COC(=O)/C=C/c2cccc(OC)c2)NC(=O)NC1C (stereo not given) | inconclusive: 20 µM [quencher, side channel, single point] |
| COc1ccc(CNc2ccc3cn[nH]c3c2)c(OC)c1OC | inconclusive: 39.8 µM [quencher, side channel, single point] |
| Cc1ccc(NC(=O)Cn2cc(S(=O)(=O)c3ccc(F)cc3)c(=O)c3cc(F)ccc32)cc1 | inconclusive: 3.16 µM [fluorescent, full curve] |
| COc1ccc(Cl)cc1NC(=O)CN(C)CC(=O)Nc1ccccc1-c1ccccc1 | inactive |
| COc1ccccc1NS(=O)(=O)c1cc2c3c(c1)CC(=O)N3CCC2 | inconclusive: 0.794 µM [fluorescent, side channel, single point] |
| COC(=O)c1ccc(COc2ccccc2/C=N/NC(N)=O)o1 | inconclusive: 31.6 µM [quencher, side channel, single point] |
| CN1C(=O)c2cccc3c(S(=O)(=O)Nc4ccccn4)ccc1c23 | inconclusive: 17.8 µM [quencher, side channel, partial curve] |
| CCN(CC)S(=O)(=O)c1ccc(N/N=C/c2ccc(O)cc2)nc1 | inactive |
| CCCCN1C(=O)CCC(C(=O)O)C1c1ccc([N+](=O)[O-])cc1 (stereo not given) | inconclusive: 22.4 µM [quencher, side channel, partial curve] |
| CC1CC(C)CN(C(=O)C2CCCN(S(=O)(=O)c3cccc4nonc34)C2)C1 (stereo not given) | inconclusive: 14.1 µM [quencher, partial curve] |

| Structure (SMILES) | Potency |
| --- | --- |
| CCn1c(SCC(=O)Nc2cc(S(=O)(=O)N3CCOCC3)ccc2OC)nnc1-c1ccncc1 | inactive |
| COC(=O)COc1ccc(C2Nc3c(Cl)ccc(C(=O)O)c3C3C=CCC32)cc1 (stereo not given) | inconclusive: 25.1 µM [quencher, side channel, single point] |
| Nc1c([N+](=O)[O-])c(=O)oc2ccccc12 | inconclusive: 20 µM [quencher, side channel, partial curve] |
| CCCC1(c2ccccc2)NC(=O)N(C/C=C/Cl)C1=O (stereo not given) | inactive |
| Cc1ccc(CNC(=O)Cn2c(=O)n(-c3ccccc3)c(=O)c3sccc32)cc1 | inconclusive: 31.6 µM [fluorescent, side channel, single point] |
| COc1ccc(S(=O)(=O)Nc2c(C)ccc3nsnc23)cc1OC | inconclusive: 12.6 µM [quencher, side channel, partial curve] |
| Cc1ccc(SCC(=O)Nc2ccc(-c3nc4ccccc4[nH]3)cc2)cc1 | inactive |
| CCN1C(N(C)CCc2cccs2)=N[C@@H](c2ccccc2)C(C(=O)OC)=C1C | inconclusive: 17.8 µM [quencher, side channel, single point] |
| Cc1c(Br)c([N+](=O)[O-])nn1CC(=O)Nc1nccs1 | inconclusive: 25.1 µM [quencher, side channel, single point] |
| CCCNc1ccc(C(=O)OCC)cc1[N+](=O)[O-] | inconclusive: 14.1 µM [quencher, side channel, partial curve] |
| O=C(N/N=C/c1sc(N2CCOCC2)nc1-c1ccccc1)c1ccc(O)cc1 | inconclusive: 15.8 µM [quencher, partial curve] |
| O=[N+]([O-])c1ccc(Oc2ccc(-c3nnco3)cc2)c(Cl)c1 | inconclusive: 3.16 µM [quencher, side channel, full curve] |
| Nc1c(C(=O)NCCN2CCOCC2)c2nc3ccccc3nc2n1-c1cccc(F)c1 | inconclusive: 17.8 µM [quencher, side channel, partial curve] |
| CCN1CCN(C(=S)c2ccc(Cl)cc2)CC1 | inactive |
| O=C(NCCCN1CCN(c2ccc(F)cc2)CC1)NC12CC3CC(CC(C3)C1)C2 | inactive |
| CCCc1cc(C(=O)N/N=C/c2ccc(C)o2)c2ccccc2n1 | inconclusive: 25.1 µM [quencher, side channel, single point] |
| CCCc1cc(C(=O)Nc2cccc([N+](=O)[O-])c2)cs1 | inconclusive: 28.2 µM [quencher, side channel, single point] |
| CCN1CCN(C(c2cccs2)C(C)NS(=O)(=O)c2ccccc2)CC1 (stereo not given) | inactive |
| O=C(CCc1ccc(Oc2cc([N+](=O)[O-])cc([N+](=O)[O-])c2)cc1)N1CCCCC1 | inconclusive: 15.8 µM [quencher, side channel, partial curve] |
| Cn1c(CCN2CCOCC2)nc2cc(NS(=O)(=O)c3ccccc3)ccc21 | inactive |
